Drawing on PubChem BioAssay AID1240 (Sanford-Burnham Center for Chemical Genomics, 2008), this text covers displacement for 108 compounds.

The campaign covered roughly 50,000 compounds. About 800 (1.6%) showed an effect of 50% or more. The list shows a part of the results.

The assay addresses Bcl-2-like protein 10 (Homo sapiens) (UniProt Q9HD36). The assay is described as follows: TR3 peptide-Bcl-B binding displacers, biochemical primary FP assay, phenotype converters (AID 1240).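 Also: 0% = Bcl-B with tracer peptide and DMSO and 100% = tracer peptide lacking Bcl-B.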 To be noted: GST-Bcl-B / FITC-TR3 peptide fluorescence polarization; stronger effect = higher value; compound at 3.75 mg/L. For orientation: Polarisation of emitted light reports the rotation of a fluorescent probe.
UniProt Q9HD36, sequence (Q9HD36 whole entry, looked up): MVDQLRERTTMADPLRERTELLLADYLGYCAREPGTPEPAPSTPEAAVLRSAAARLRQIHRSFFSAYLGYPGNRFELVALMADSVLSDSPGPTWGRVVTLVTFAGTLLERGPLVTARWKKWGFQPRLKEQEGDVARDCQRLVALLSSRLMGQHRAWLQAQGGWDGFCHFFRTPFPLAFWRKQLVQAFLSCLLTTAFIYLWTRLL
Regarding `O=C(Nc1cc2cc(Cl)ccc2oc1=O)c1ccccc1`, the displacement was 3.6%. Regarding `Cc1c(C)c2ccc(OCC(=O)N(C)C)c(C)c2oc1=O`, the displacement amounted to 10.8%. Take `O=C1/C(=C/c2ccc(Br)cc2)SC(=S)N1c1cccc(Br)c1`: the displacement is -2.3%. The figure for `Cc1cnn(-c2cc(N/N=C/c3ccc(Br)cc3)ncn2)c1` is -5.8%; for `C=CCn1c(SCC(=O)N2CCOCC2)nc2sc(C)c(C)c2c1=O` it is -8.5%; for `COC(=O)c1c(NC(=O)CCc2ccccc2)sc2c1CCCC2` it is 2%. Next, `Cc1c(Cl)cccc1NCN1C(=O)c2ccccc2C1=O`: -1%; `COc1ccc2c(c1)/C(=N/OC(=O)c1cccs1)CCC2`: -13.6%. As to `CN(C)c1ccc(N=Cc2ccco2)cc1`, the displacement is 16.8%.

`CN1CCN(C(=O)CCCN2C(=O)/C(=C/c3ccccc3)SC2=S)CC1`: the displacement was 7.5%. Next, `O=C1C=CC(=NOS(=O)(=O)c2ccccc2)C=C1`: 20.5%; `CC(=O)c1ccc(Nc2ccc([N+](=O)[O-])cc2[N+](=O)[O-])cc1`: 9.2%. Take `COc1cc(OC)c(/C=C2\C(=O)NC(=S)N(c3ccc(C)cc3)C2=O)cc1Br`: the displacement is 4.7%. `O=C1NC(=S)S/C1=C/c1cccn1-c1cccc([N+](=O)[O-])c1`: the displacement amounted to 15.9%. With `Cc1ccc(NC(=S)NNC(=O)CCn2c3ccccc3c3ccccc32)cc1`, the displacement was -12.3%. The figure for `CN(C)c1ccc(/C=C/C=N/NC(=O)c2ccccc2O)cc1` is -33.9%. The figure for `Oc1ccc(Cl)cc1/C=N/Nc1cc(N2CCCC2)nc(N2CCCC2)n1` is 15.7%; for `Cc1cccc(C(=O)NC2CC(C)(C)NC(C)(C)C2)c1` it is -9.9%. Consider `Cc1sc(NC(=O)c2ccccc2[N+](=O)[O-])nc1-c1ccccc1`, for which the displacement was 11.3%. With `COc1cc(C2Nc3ccc4ncccc4c3C3=C2C(=O)CCC3)cc(OC)c1OC` (stereo not drawn), the displacement is 3.7%. Consider `CCOC(=O)c1c(NC(=S)Nc2ccccc2)sc2c1CCN(Cc1ccccc1)C2`, for which the displacement is -58.9%.

As to `O=C(CSCc1ccccc1)Nc1ccc2c(c1)C(=O)N(c1ccccc1)C2=O`, the displacement is -17.4%. For the compound `CCC(=O)NC(Nc1ccc(F)c(Cl)c1)(C(F)(F)F)C(F)(F)F`, the displacement amounted to 43.4%. `COc1ccc(NC(=O)c2ccc(I)cc2)c(OC)c1`: the displacement turned out to be 7.8%. The figure for `COc1ccc(CN2C(=O)NC(=O)/C(=C\C=C\c3ccccc3)C2=O)cc1` is 13.5%. The figure for `Cc1ccc(NC(=O)COc2ccc(Cl)cc2Cl)c([N+](=O)[O-])c1` is 14.5%; for `Cc1ccc(/C(N)=N/OC(=O)c2ccc(F)cc2)cc1` it is 4.9%.

Regarding `COc1ccc2c(c1)C1C=CCC1C(C(=O)O)N2` (stereo not drawn), the displacement was 150%. The figure for `COCCCNC(=O)/C(=C\c1ccc(-c2ccc(Cl)cc2)o1)NC(=O)c1ccc(C)cc1` is 8.5%; for `COc1cc(C(=O)N2CCN(C(=O)COc3ccc4ccccc4c3)CC2)cc(OC)c1OC` it is -20%.

Turning to `COc1ccc(CCNC(=O)CC(=O)N/N=C/c2ccc(C(C)C)cc2)cc1OC`, the displacement was -7.4%. Take `O=C(c1ccccc1I)n1cccn1`: the displacement was -0.1%. Take `O=S(=O)(Nc1ccc(S(=O)(=O)N2CCOCC2)cc1)c1ccc(Br)cc1`: the displacement is -4.9%.

As for `Cc1ccc(S(=O)(=O)N(C)CCCC(=O)Nc2ccc(F)cc2)cc1`, the displacement came to 18.4%.

With `O=C(CCCC(=O)OCC(F)(F)C(F)F)Nc1ccc(F)cc1F`, the displacement came to 7.8%.

In the case of `O=C(/C=C/c1ccc2c(c1)OCO2)Nc1ccc2ccccc2c1`, the displacement is 10%. The figure for `C=CCn1c2ccccc2n2cc(-c3ccc(Br)cc3)nc12` is -25.3%; for `Cc1ccc(NC(=O)CSc2nc3c(c(=O)n(C)c(=O)n3C)n2C)cc1C` it is 9.6%. Next, `Cc1cccnc1NC(=O)Nc1ccc(F)cc1`: 0.2%. Next, `COc1cc(OC)cc(C(=O)Nc2ccc(-c3nc4ccccc4s3)c(O)c2)c1`: -10.2%; `O=C(N/N=C/c1ccc(O)cc1)c1cccc(Cl)c1`: -4.7%; `CC(C)Cn1cc(Cl)c(=O)n(CC(C)C)c1=O`: -5%. As to `CS(=O)(=O)N(CC(N)=O)c1cccc(C(F)(F)F)c1`, the displacement was 9.9%.

On to `CCOC(=O)c1c(C)oc2cc(S(=O)(=O)O)c(O)cc12`, for which the displacement is 7.5%. With `CC(=O)/C(C(N)=NC(=O)c1ccccc1)=C(/O)c1ccccc1`, the displacement came to 13.2%. Take `CCOc1cc(/C=C(\C#N)c2nc3ccc(C)cc3[nH]2)cc(I)c1OC`: the displacement was -4.7%. The figure for `COc1ccc2c(c1)C1C=CCC1C(c1ccc([N+](=O)[O-])cc1)N2` (stereo not drawn) is -0.8%; for `Cc1ccoc1C(=O)Nc1ccc2ccccc2c1` it is 7.1%. On to `C=CCN1C(=O)/C(=C\c2cn(Cc3ccccc3F)c3ccccc23)SC1=S`, for which the displacement worked out at 3%.

For `CC(=O)Oc1cc2ccccc2cc1O`, the displacement stood at 3.9%. `O=C(Nc1cccc(F)c1)c1sc2ccccc2c1Cl`: the displacement came out at 3.8%. The figure for `COc1ccc(CCNC(=O)/C(=C/c2ccc(Cl)cc2)NC(=O)c2ccc(C)cc2)cc1OC` is 16%; for `C=CC[n+]1c(-c2ccc(OC)cc2)csc1Nc1cccc(C)c1C` it is 3.3%. Take `CCOC(=O)c1ccc(NC(=O)c2ccc(S(=O)(=O)N(C)C)cc2)cc1`: the displacement was found to be 15.1%.

Regarding `CC1=CC(C)C2COC(c3ccc[n+](C)c3)C1C2C` (stereo not drawn), the displacement came out at 4.4%.

Consider `CCOC(=O)c1c(NC(=O)/C=C\C(=O)O)sc(C(=O)Nc2ccccc2)c1C`, for which the displacement worked out at 12.2%. The figure for `Cc1ccc(/C=N/N2CCN(Cc3ccccc3Cl)CC2)s1` is 11.2%. With `Cc1ccc(C2Nc3ccccc3NC3=C2C(=O)CC(c2ccccc2)C3)cc1` (stereo not drawn), the displacement turned out to be 18.6%. The figure for `O=C1CSC(c2ccc(F)cc2)N1Cc1ccccc1` (stereo not drawn) is -6.5%.

In the case of `CS(=O)(=O)N(CC(=O)Nc1ccccc1Br)c1ccc(Cl)cc1`, the displacement is -8.3%.

For the compound `COc1ccccc1CC(=O)Nc1ccc(Br)c(C)c1`, the displacement is 11.6%. For `CCOc1ccc(-c2nc(Cc3ccc(OC)cc3)no2)cc1`, the displacement was -3.4%. As for `COc1ccc(NC(=O)/C(=C\c2ccc(Br)cc2)NC(=O)c2ccccc2F)cc1`, the displacement was -10.9%.

As for `c1ccc(NC2=Nc3cccc4cccc2c34)cc1`, the displacement stood at 8.9%.

Take `CCOc1cc(C(=O)Nc2ccncc2)cc(OCC)c1OCC`: the displacement is -0.2%.

With `N#Cc1c(Nc2ccccc2)ccnc1N1CCN(c2ccccc2)CC1`, the displacement is -9.8%.

With `O=C(NCCc1cccc(C(F)(F)F)c1)C(=O)Nc1ccccc1`, the displacement is -5%. In the case of `COC(=O)C1=C(O)/C(=C/c2ccc(O)cc2)N=C1C`, the displacement was 11.7%. With `CC(=O)C(C(C)=O)C1=C(Cl)C(=O)C(=O)c2ccccc21`, the displacement came out at 2.1%.

On to `COC(=O)C1=CNC=C(C(=O)OC)C1c1cc2c(cc1Cl)OCO2`, for which the displacement is 4.7%. As to `CC1(C)CC(O)CC(C)(CN=Cc2c(O)n(-c3ccc(Cl)cc3)c(=O)[nH]c2=O)C1` (stereo not drawn), the displacement is -31.5%.

Regarding `C=CCN1C(=O)/C(=C\c2cc(Cl)ccc2OCc2ccccc2F)SC1=S`, the displacement is 60.2%. For `O=C(NNc1cccc(F)c1)C(O)(c1ccccc1)c1ccccc1`, the displacement came to 2%. With `CCC(=O)N1c2ccccc2NC2=C(C(=O)CC(c3ccccc3)C2)C1c1ccc([N+](=O)[O-])cc1` (stereo not drawn), the displacement was -7.4%. Regarding `O=C(O)CC/C(=N/NC(=O)c1c[nH]c2ccccc12)c1ccccc1`, the displacement turned out to be 3.1%. The figure for `CC(/C=C1\SC(=S)N(c2ccc(F)cc2)C1=O)=C\c1ccccc1` is -11.7%. Consider `CC1=C(C#N)c2nc(N)c(C#N)c(C)c2/C1=C\c1ccc(Br)o1`, for which the displacement was found to be 2.7%. Turning to `CCN(CC)C(=O)c1sc(NC(=O)c2ccc(C)c(C)c2)c(C(=O)OC)c1C`, the displacement is -1.5%. The figure for `CCc1c(C)sc(NC(=O)C(C)Oc2cccc(Cl)c2)c1C(N)=O` (stereo not drawn) is 8.5%. The figure for `CC(=O)Nc1nonc1OCCOc1nonc1NC(C)=O` is 11.4%; for `O=c1oc(/C=C/c2ccc([N+](=O)[O-])cc2)nc2ccc(Cl)cc12` it is -15.5%.

Take `CCN1C(=O)/C(=C\c2ccc(OCCOc3cccc(OC)c3)c(OC)c2)SC1=S`: the displacement was found to be 16.2%. With `CC(C)c1ccc(/C=C/C(=O)NC(=S)Nc2ccc(S(=O)(=O)N=C(N)N)cc2)cc1`, the displacement stood at 8.3%.

Consider `COC(=O)C12CC3CC(C1)CC(c1ccc([N+](=O)[O-])cc1)(C3)C2`, for which the displacement was found to be 11.1%. The figure for `COc1cccc(Nc2cc(=O)n(-c3ccccc3)c3ccccc23)c1` is -7.3%; for `COc1ccc(C2(CC(=O)Nc3ccccc3C)C(=O)c3ccccc3C2=O)cc1` it is -1.7%.

`Cc1nc2ccccc2c(=O)n1/N=C/c1ccco1`: the displacement is -6.3%. Next, `CCOc1ccc(/C=N/N2CCN(Cc3cccc4ccccc34)CC2)cc1OC`: -8%; `CS(=O)(=O)N(Cc1ccc(C(=O)NCCSCc2ccccc2Cl)cc1)c1ccccc1`: 0.1%. Next, `CCOC(=O)c1c(NC(=O)c2ccccc2)sc(C)c1CC`: -8.6%; `CCOc1ccc(/C=C2/SC(=S)N(c3ccccc3OC)C2=O)cc1`: -1.6%; `COc1ccc(CN2CCN(C3CCC(c4ccccc4)CC3)CC2)c(OC)c1` (stereo not drawn): -1.6%.

For `COc1ccc(C(=O)N2CCN(c3ccccc3)CC2)c(OC)c1`, the displacement stood at 5.2%. Take `CC1CC(Nc2ccccc2)c2ccccc2N1C(=O)c1ccc(Cl)c(Cl)c1` (stereo not drawn): the displacement worked out at 9.2%. Turning to `Cc1ccsc1C1Nc2ccc3ccccc3c2C2=C1C(=O)CC(C)(C)C2` (stereo not drawn), the displacement was -0.1%. Turning to `CC1=C(C#N)c2nc(N)c(C#N)c(C)c2/C1=C\c1ccc(-c2ccc([N+](=O)[O-])cc2Cl)o1`, the displacement was -14.7%. For `CC(=O)c1cccc(N2C(=O)C3C4c5ccccc5C(C(C)=O)(c5ccccc54)C3C2=O)c1` (stereo not drawn), the displacement came out at 10.3%. The figure for `O=C(COc1ccc(Cl)cc1Br)NCc1ccc2c(c1)OCO2` is 11.6%; for `COc1cc(OC)c(OC)cc1/C=C1/C(=O)NC(=O)N(c2ccccc2)C1=O` it is 1.4%; for `CN1C(=O)/C(=C\c2ccccc2OCCOc2ccc(Br)cc2)SC1=S` it is 2.3%. With `Cc1cc(=O)[nH]c(SCC(=O)Nc2cccc(C)c2C)n1`, the displacement was -9.1%. For the compound `CCN1C(=O)/C(=C\c2ccc(N(C)C)cc2)C(C(=O)OC)=C1C`, the displacement was -2.3%. Regarding `O=C(O)C1C2C=CC3(CN(CC(O)COc4ccccc4)C(=O)C13)O2` (stereo not drawn), the displacement is -2.7%. Next, `CC(C)(C)c1cc(C(C)(C)C)c2nc(-c3ccccc3O)oc2c1O`: 1.1%. On to `CCCC(=O)Nc1cccc(NC(=O)c2cc([N+](=O)[O-])ccc2Br)c1`, for which the displacement was -0.4%. The figure for `CC1(C)CCC[C@@]2(C)C1CC[C@]1(C)OC(=O)C[C@H]21` (stereo partly drawn) is -0.1%; for `O=C(CSc1nncn1-c1ccccc1)c1ccc(F)cc1` it is 13.4%. The figure for `CCOc1ccc([C@H]2[C@H](C(=O)c3ccccc3)N3c4ccccc4C=CC3C2(C#N)C#N)cc1` (stereo partly drawn) is 15.3%.
